# PubChem BioAssay AID894 (National Center for Advancing Translational Sciences (NCATS), 2007)
# Out of some 150,000 compounds screened, about 6,500 (4.3%) were called active. The inconclusive results got no clear call from the source; some entries with a clear call stand among them for comparison. The call rests on the fitted dose curve; in most records, active means well fitted inhibition curve with a large enough effect (not every such curve was filed as active); inconclusive means small, poorly fitted or top-dose-only effect, or another doubt; inactive means no such curve, though single readings can be large or run the other way. Potencies of inconclusive entries are left out as doubtful fits.
# Target: 15-hydroxyprostaglandin dehydrogenase [NAD(+)] (Homo sapiens) (UniProt P15428)
# Assay: qHTS Assay for Inhibitors of HPGD (15-Hydroxyprostaglandin Dehydrogenase)
# Settings: purified HPGD, NADH fluorescence kinetic, PGE2 substrate; activity change, negative = inhibition: hits give low values
# In short: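 NADH formation kinetics: reaction with 30 uM PGE2 and 1 mM NAD+ (final), 20 nM enzyme, Tris-HCl pH 8 with Tween 20, after 15 min compound preincubation at room temperature. Fluorescence change, last versus first of five reads.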
# On the % scale 0 is the no-effect control and ±100 the full control effect; potency means the concentration at half of the fitted maximal effect; tags describe the fitted curve by direction and shape.
# Sequence of UniProt P15428 (P15428 whole entry, looked up): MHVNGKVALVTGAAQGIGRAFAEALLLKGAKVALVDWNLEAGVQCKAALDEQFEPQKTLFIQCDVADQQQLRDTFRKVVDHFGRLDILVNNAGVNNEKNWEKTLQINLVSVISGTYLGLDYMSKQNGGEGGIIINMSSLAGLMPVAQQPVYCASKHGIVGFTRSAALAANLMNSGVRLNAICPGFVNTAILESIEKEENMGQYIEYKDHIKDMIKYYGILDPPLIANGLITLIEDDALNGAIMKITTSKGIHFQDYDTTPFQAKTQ
Compound,Potency,"activity change, negative = inhibition"
C/C(N)=C(/C#N)C(=O)COC(=O)CCC1CCCC1,"inconclusive [inhibitor, partial curve]",–
CC(=O)c1c(N2CCOCC2)nc(=S)n(-c2cc(C)ccc2C)c1C,–,inactive: -12.5%
CSc1nc(=NC(C)=O)ss1,"inconclusive [inhibitor, single point]",–
CCCCn1c(-c2ccco2)n[nH]c1=S,"inconclusive [inhibitor, partial curve]",–
COc1cc(OC)c(OC)cc1/C=N/NC(=O)c1cc(-c2cccn2C)n[nH]1,"inconclusive [inhibitor, single point]",–
O=C(c1ccc(-n2c(=O)c(=O)[nH]c3ccccc32)cc1)N1CCCN(Cc2ccccc2)CC1,–,inactive: -6.8%
COc1ccc(Nc2ncnc3ccccc23)c(OC)c1,"inconclusive [inhibitor, single point]",–
O=C(NNC(=S)Nc1cccc2ccccc12)c1cccc(Br)c1,–,inactive: -19.8%
COc1ccc(/C=N/NC(=O)c2nc(Cl)c(Cl)c(N)c2Cl)cc1COc1ccccc1F,"inconclusive [inhibitor, partial curve]",–
COC(=O)c1cn(NC(=O)Cc2ccc(Cl)cc2)c(=O)c2ccccc12,"inconclusive [inhibitor, single point]",–
CCOC(=O)C12CC1/C(=N/O)c1ccccc1O2 (stereo not given),–,inactive: -10.8%
Cc1cc(C)c(S(=O)(=O)/N=C2\C=CC(=O)C(Cl)=C2)c(C)c1,active: 20 µM,–
Cc1ccc(NS(=O)(=O)N(C)C)cc1,"inconclusive [inhibitor, single point]",–
Cc1ccc(-c2c(C#N)c(N)nc3c2CCCCC3)o1,"inconclusive [inhibitor, partial curve, poor fit]",–
C/C(=N\NC(=O)c1cccc(C)c1)c1cccc(NC(=O)c2ccco2)c1,–,inactive: -15.3%
Cc1cccc(Cn2c(=O)c3c(nc4n3CCN4Cc3ccco3)n(C)c2=O)c1,"inconclusive [inhibitor, partial curve]",–
COc1cnc(N(C)C)nc1Sc1cccc(Cl)c1,"inconclusive [inhibitor, partial curve]",–
CCOC(=O)c1cc(CC)sc1NC(=O)c1ccc(N2C(=O)CCC2=O)cc1,"inconclusive [inhibitor, partial curve]",–
COc1ccc(C2=Nn3c(nnc3-c3ccccc3)SC2)cc1OC,"inconclusive [inhibitor, single point]",–
O=C1c2ccccc2C(=O)c2c1oc(C(F)(F)F)c2C(=O)c1ccccc1,–,inactive: -16.1%
O=C(N1CCCCC1)N1CCN(c2ccc(Cl)cc2)CC1,"inconclusive [inhibitor, partial curve]",–
O=C(C1CC1)N1CCc2cc(Br)cc(S(=O)(=O)NCc3ccco3)c21,–,inactive: -10.7%
CN(C)c1ccc(C(=O)N2CC(=O)N(CCc3ccccc3)C(=O)C2)cc1,"inconclusive [inhibitor, partial curve]",–
COc1cc(CC(C#N)(CO)c2nc3ccccc3[nH]2)ccc1OC(F)F (stereo not given),–,inactive: -8.42%

Compound,Potency,"activity change, negative = inhibition"
COc1cc(-c2ccc(N=C=O)c(OC)c2)ccc1N=C=O,"inconclusive [inhibitor, partial curve, poor fit]",–
Cc1cc(N2CCN(C)CC2)n2cc(-c3ccc(F)cc3)nc2n1,"inconclusive [inhibitor, partial curve]",–
CCOC(=O)CCCc1sc(N)nc1-c1[nH]c(=O)[nH]c1C,active: 31.6 µM,–
O=C(NCc1ccco1)/C(=C/c1ccc(C(F)(F)F)cc1)c1nc2ccccc2[nH]1,"inconclusive [inhibitor, partial curve]",–
Cc1cc(=O)n(CCc2ccccc2)c(O)c1C#N,–,inactive: -16.9%
CC(=O)SC1CC2=CC(=O)CC[C@]2(C)C2CC[C@@]3(C)[C@@H](CC[C@@]34CCC(=O)O4)C12 (stereo not given in full),–,inactive: -3.08%
CC(=O)Nc1c(C(=O)N2CCN(c3ccccn3)CC2)cnn1-c1ccc(C)cc1,–,inactive: -19.7%
CC1=N/C(=C\c2ccc(OC(C)C)cc2)C(=O)N1c1ccc(C(=O)O)cc1,active: 15.8 µM,–
CN1/C(=N\O)c2cccc3cccc1c23,"inconclusive [inhibitor, partial curve]",–
COc1ccc(CC(=O)Nc2ccc(-c3cn4ccc(C)cc4n3)cc2)cc1,"inconclusive [inhibitor, partial curve]",–
C=CCn1c(SCC(=O)Nc2ccccc2C)nc2sc(C)c(C)c2c1=O,–,inactive: -19.1%
N/C(=N\c1nc2ccccc2o1)NC(=O)c1ccccc1,"inconclusive [inhibitor, partial curve]",–
NS(=O)(=O)c1ccc2c(c1)C1C=CCC1C(C1CC=CCC1)N2 (stereo not given),–,inactive: -16.6%
Cn1cc(C(=O)N2CCN(C(=O)c3ccco3)CC2)c2c3ccccc3n(C)c2c1=O,"inconclusive [inhibitor, partial curve]",–
Cc1ccc(N2C(=O)CC(Sc3ncn[nH]3)C2=O)cc1 (stereo not given),"inconclusive [inhibitor, partial curve, poor fit]",–
C=CCc1cc(C)ccc1OCCn1ccnc1,–,inactive: -5.09%
CCOC(=O)c1c(N)sc(=S)c2c1CCC2,"inconclusive [inhibitor, partial curve]",–
CCC1=C2CC[C@H]3C(=O)N(C)C(=O)[C@H]3[C@H]2[C@@]2(C)C(=NCC(=O)OC)OC(=O)N2C1=O,–,inactive: -7.15%
O=C1O/C(=C\C(=O)N2CCOCC2)c2ccccc21,–,inactive: -5.3%
C/C=C/c1ccc(OCCCNC(C)CC)c(OC)c1 (stereo not given),–,inactive: -8.95%
O=C1CSC(c2cn(-c3ccccc3)nc2-c2cc3ccccc3oc2=O)N1Cc1ccco1 (stereo not given),"inconclusive [inhibitor, partial curve]",–
CC(C)n1nnnc1SCC(=O)c1ccc2c(c1)OCCO2,–,inactive: -14.9%
CN(C)S(=O)(=O)c1ccc(N2CCCC2)c(C(=O)Nc2nc(-c3ccc(F)cc3)cs2)c1,"inconclusive [inhibitor, single point]",–
Oc1c(CN2CCN(c3ccccn3)CC2)cc(Cl)c2cccnc12,–,inactive: -11.9%

Compound,Potency,"activity change, negative = inhibition"
O=C(Nc1ccc(-c2noc(-c3ccccc3F)n2)cc1)c1cccs1,"inconclusive [inhibitor, partial curve]",–
CCCN1CCN(C(c2cc3cc4c(cc3[nH]c2=O)OCO4)c2nnnn2C(C)(C)C)CC1 (stereo not given),"inconclusive [inhibitor, partial curve]",–
CC(C)c1nc(N2CCN(C(=O)c3ccccc3)CC2)c(C#N)c2c1COC(C)(C)C2,"inconclusive [inhibitor, single point]",–
COc1ccc(NC(=O)c2oc3cc(C)c(C)cc3c2C)c(OC)c1,"inconclusive [inhibitor, partial curve]",–
O=c1cc(O)nc(SCc2ccccc2Cl)[nH]1,–,inactive: -21.6%
COc1c(-c2ccc(O)c(O)c2)oc2cc(O)cc(O)c2c1=O,–,inactive: -8.19%
COc1ccc2c(c1)nc(SCC(=O)c1cccs1)n2C,–,inactive: -7.88%
CCOC(=O)CC(=O)CSc1nc(-c2cccnc2)ccc1C#N,"inconclusive [inhibitor, partial curve]",–
CC1(C)C(O)C=C[C@@]2(C)C1CC(=O)O[C@@]1(C)C3=CC(=O)OC(c4ccoc4)[C@]3(C)CCC21 (stereo not given in full),–,inactive: 0.183%
COc1cc(/C=N/n2cnnc2)ccc1OCc1ccccc1,"inconclusive [inhibitor, partial curve]",–
Cc1ccc2nc(-c3ccc(NC(=S)NC(=O)C(C)C)cc3)sc2c1,"inconclusive [inhibitor, partial curve]",–
O=C(Nc1ccc(C(=O)Oc2ccccc2)c(O)c1)c1ccco1,"inconclusive [inhibitor, partial curve]",–
Clc1ccc(Cl)c(-c2nn3c(COc4ccccc4)nnc3s2)c1,active: 10 µM,–
CN(C)Cc1c(O)ccc2c3c(c(=O)oc12)CCCCC3,"inconclusive [inhibitor, partial curve]",–
O=C1C2CSCN2C(=O)CN1CCCN1CCN(C(c2ccccc2)c2ccccc2)CC1 (stereo not given),–,inactive: -5.17%
CCCCNC(=O)c1cc(-c2ccc(OC)cc2)on1,"inconclusive [inhibitor, partial curve]",–
CC1(C)C/C(=N\O)c2cc3c(nc2C1)CCCC3,–,inactive: -3.27%
CN1c2ccsc2/C(=N/NC(=O)c2c(F)cccc2F)CS1(=O)=O,"inconclusive [inhibitor, partial curve, poor fit]",–
c1ccc(-c2nc3nonc3c3nc4ccccc4n23)cc1,"inconclusive [inhibitor, partial curve]",–
COc1ccc(-c2cc3nc(C)c(CCC(=O)NC(C)CCc4ccco4)c(C)n3n2)c(OC)c1 (stereo not given),"inconclusive [inhibitor, partial curve]",–
Cc1cc(-c2ccccc2)[nH]c(=O)c1S(=O)(=O)c1ccc(Cl)cc1,"inconclusive [inhibitor, partial curve]",–
O=C(N/N=C/c1ccccc1Br)c1ccc(CSc2cccc3cccnc23)cc1,"inconclusive [inhibitor, partial curve]",–
